Reference: PubChem BioAssay AID1963576 (National Center for Advancing Translational Sciences (NCATS), 2024)
Hit rate of the full screen: of about 46,000 compounds, about 60 (0.1%) were called active. About 3% were inconclusive and are not listed. Calls come from the whole dose curve; as a rule, active = well fitted inhibition curve with a large enough effect; inconclusive = small, poorly fitted or top-dose-only effect; inactive = no such curve, though single readings can be large or run the other way. The list shows a part of the results.

Test: Primary qHTS assay for Inhibitors of ovarian cancer metastasis using an organotypic tumor microenvironment (TME) model.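 For activity change, negative = inhibition: plate controls were DMSO wells for no effect and tomatine positive control wells for full effect.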 Note: nearly all actives have a fitted effect of over 65% in size.
Conditions: SKOV3ip1-GFP adhesion/invasion on 3D omental model, fluorescence; series mostly up to 45.8 µM; activity change, negative = inhibition: at the top concentration
How it was run: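 Primary human omental fibroblast/mesothelial 3D culture pre-formed 48 h. SKOV3ip1-GFP cells added with compounds (0.36-46 umol/L), incubated 2 h RT/16 h 37 C, fixed; GFP cells quantified at 488/509 nm.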

Activity change, negative = inhibition, inactive:
Cc1ncc(CO)c2c1Oc1nc(-c3ccccc3Cl)nc(SCc3ccccc3F)c1C2 -3.46%, COC(=O)C(C)Sc1ccc2nnc(CCNS(=O)(=O)c3ccc(C)cc3)n2n1 (stereo not given) -3.93%, Cc1ccc(C)c(NC(=O)n2ncc3cc(Cl)ccc32)c1 9.22%, COC(=O)c1cc2oc(C)cc2n1Cc1ccc(Br)cc1F 8.13%, COC(=O)c1ccc(NC(=O)CSc2ccc(-c3sc(-c4ccccc4)nc3C)nn2)cc1 -0.671%, CCC(Oc1ccccc1-c1nnc(-c2ccccc2)o1)C(=O)Nc1ccc(C(C)=O)cc1 (stereo not given) 2.74%, COc1ccc(C2CC(=O)N3CN(C4CCCCC4)CSC3=C2C#N)c(OC)c1 (stereo not given) 8%, COc1cc(Cl)c(C)cc1Nc1nc2ccccc2c2nnc(C)n12 -5.32%, O=C(NCc1cccnc1)c1nn(-c2ccc(Cl)cc2)nc1CO -2.06%, O=C(NC1CC(=O)N(c2ccc(F)cc2)C1)c1ccco1 (stereo not given) -4.17%, O=C(Nc1cccc(C(F)(F)F)c1)c1ccc2c(c1)nnn2C1CCCC1 5.82%, COc1ccc(S(=O)(=O)NCCc2nnc3ccc(SCC(=O)Nc4ccccc4C)nn23)cc1 -1.45%, CCc1ccc(-n2c(=O)c3c4c(sc3n(Cc3ccccc3C#N)c2=O)CCC4)cc1 18.5%, COc1cc2c(cc1OC)CN(C(=O)Nc1ccccc1)CC2 -10.6%, CCS(=O)(=O)Nc1ccc(-c2cn3ccsc3n2)cc1 9.32%, Cn1cc(CN(C(=O)Nc2ccccc2)C2CCCCC2)c2ccccc21 32.6%, CCCCn1c(=O)c2oc3ccccc3c2n(CC(=O)Nc2ccc(CC)cc2)c1=O -0.558%, COc1ccccc1NC(=O)c1ccc(COc2ccc(C)c(C)c2)o1 -0.951%, Cc1cccc(N2CCN(S(=O)(=O)c3c(C)nc4scc(C)n4c3=O)CC2)c1C 3.86%, COCCCNC(=O)CCCn1c(=O)c2ccccc2n(CC(=O)Nc2ccc(C)cc2Cl)c1=O 7.04%, O=C(NCCc1ccc(Cl)cc1)c1nnc(Cc2ccc(Cl)cc2Cl)o1 2.03%, CC(C)Cn1c(-c2ccccc2Cl)nc2ccccc21 -14%, CC(C)Cn1c(CN2CCN(c3cccc(Cl)c3)CC2)nc2c1c(=O)[nH]c(=O)n2C 15.1%, O=C(CSc1nncn2c1cc1occc12)Nc1ccc(F)c(Cl)c1 3.7%, O=C(NCCc1ccc(Cl)cc1)c1ccc2nc(CCc3ccccc3)oc2c1 4.59%, Cc1nc(S(=O)(=O)N2CCN(c3cccc(Cl)c3)CC2)cn1C -8.72%, COc1cc(Nc2nn(-c3ccc(OC(F)(F)F)cc3)nc2C(C)=O)cc(OC)c1 24.8%, O=C(CCCn1c(=O)[nH]c2ccc(Br)cc2c1=O)N1CCN(c2cccc(Cl)c2)CC1 36.9%, COc1cc(OC)cc(-n2c(=O)c3ccccc3n(Cc3ccccc3C#N)c2=O)c1 0.556%, CCOC(=O)c1cc(-c2ccc(OC)cc2)n(CCC(=O)Nc2cccc(C)c2C)c1C -18.3%, COc1cc(NC(=O)c2ccc(-c3nc(CSc4ccccc4)c(C)o3)cc2)cc(OC)c1 -6.85%, CCc1ccc(NC(=O)Cn2nc(C(F)(F)F)c3c2CCCC3)cc1 3.65%, CCC(=O)Nc1cc(-c2cn3cccnc3n2)ccc1OC -2.43%, COc1ccccc1Cc1nc2ccccc2nc1SCC(=O)Nc1c(C)cccc1C -14.8%, COc1ccc(NC(=O)c2cc(-c3ccc(F)cc3)no2)cc1OC -9.44%, Cc1c(Cl)cccc1NC(=O)Cn1c(=O)cc(C)c2c(C)nn(-c3cccc(F)c3)c21 5.92%, COc1ccc(N(CC(C)C)S(=O)(=O)c2nnc(NC(=O)c3ccco3)s2)cc1 -13.9%, O=C(Cn1ncn2cccc2c1=O)NCc1cccc(Br)c1 8.58%, CCN(C(=O)CCS(=O)(=O)c1cc2c(cc1C)NC(=O)CO2)c1cccc(C)c1 -6.26%, CCCNC(=O)Cn1nc(-c2ccc(C)cc2)c2cnc3ccc(CC)cc3c21 -3.28%, Cc1cc(NC(=O)c2ccco2)cc(-c2nc3ccccc3o2)c1O -5.09%, Cc1cccc(N2CCN(Cc3nnc(-c4cccc(Br)c4)o3)CC2)c1C 1.02%, CCc1ccc(-c2nc(CS(=O)CC(=O)NCc3ccc(F)cc3)c(C)o2)cc1 (stereo not given) -15.6%, Cc1ccc(CNS(=O)(=O)c2c(C)nc3sc(C)cn3c2=O)cc1 -11.8%, Cc1ccc(Cl)cc1NC(=O)CN1C(=O)c2ccccc2Sc2ncccc21 -1.99%, COc1ccccc1NC(=O)Cn1c(=O)oc2cc(S(=O)(=O)NCc3ccccc3)ccc21 2.55%, Clc1ccc2nc(-c3ccc(N4CCOCC4)cc3)c(Nc3ccccc3)n2c1 -1.22%, O=C(NCc1cccc(Cl)c1)C1CCCN(c2nn3cc(-c4ccc(F)cc4)nc3s2)C1 (stereo not given) 7.62%, CC(=O)c1ccc(NC(=O)c2nc(-c3ccccc3)n(-c3ccc(C)cc3)n2)cc1 0.955%, CCCOC(=O)c1cccc(NC(=O)CSc2nnc3cc(C)c4ccccc4n23)c1 -4.3%, CC1CCc2c(sc3nnn(Cc4ccccc4Cl)c(=O)c23)C1 (stereo not given) -2.52%, CCOc1ccc(S(=O)(=O)c2cc3cccc(OCC)c3oc2=O)cc1 6.27%, CCOc1ccc(CNc2cc(C)nc3nc(-c4cccc(C)c4)nn23)cc1OC 13.5%, Cc1cccc(NC(=O)c2ccc3oc(=O)c(S(=O)(=O)c4ccc(F)cc4)cc3c2)c1C 2.82%, CCc1ccccc1N(C)C(=O)c1nn(-c2ccc(OC)cc2)c(=O)c2c1c1ccccc1n2C -6.05%, COc1ccc(N2CCN(C(=O)c3cnc(N4CCOCC4)c4ccccc34)CC2)cc1 -2.83%, Cc1ccc(NCc2cc3cc4c(cc3n(CC(=O)Nc3ccc(C)cc3)c2=O)OCCO4)cc1 -12%, CCOc1ccccc1NCc1nnc2n1CCCCC2 -14.5%, CC(C)NC(=O)CSc1cn(CC(=O)N2CCCCCC2)c2ccccc12 -21.2%, CCCCn1c(SCC(=O)c2ccccc2)nc2sc3c(c2c1=O)CCCC3 1.04%, COc1ccccc1OCc1nc2ccccc2n1Cc1ccccc1 3.57%, Cc1ccc(S(=O)(=O)Nc2ccc(-c3ccc(N4CCCCCC4)nn3)cc2)c(C)c1 -0.939%, Cc1ccc(C)c(S(=O)(=O)c2nnn3c2nc(NC2CCCC2)c2sccc23)c1 2.17%, COc1ccc(C)cc1NC(=O)c1nnn(CC(=O)Nc2c(C)cccc2C)c1N -8.07%, Cc1cccc(C)c1NC(=O)C(=O)NCC(c1ccc2c(c1)OCO2)N1CCN(C)CC1 (stereo not given) -3.95%, COc1ccc(OC)c([C@@H]2Nc3ccc(C(=O)O)cc3[C@@H]3C=CC[C@@H]32)c1 3.03%, CSc1nnc(NC(=O)c2cc(=O)c3cc(C)c(C)cc3o2)s1 10.1%, Cc1ccc(S(=O)(=O)c2cn(Cc3ccccc3)c3cc(N4CCCC4)c(F)cc3c2=O)c(C)c1 27.4%, COc1ccc(CNC(=O)C(CC(C)C)NS(=O)(=O)c2ccc3c(c2)oc(=O)n3C)cc1 (stereo not given) 2.9%, CC(=O)c1ccc(NC(=O)CCn2cccn2)cc1 0.799%, Cc1ccc(Cn2c(=O)n(Cc3ccc(C(=O)NC4CCN(Cc5ccccc5)CC4)cc3)c(=O)c3ccccc32)cc1 -21.9%, COc1ccc(N(CC(=O)N2CCCCC2)S(=O)(=O)c2ccc(OC)c(OC)c2)cc1 -1.79%, Cc1ccc2oc(C(=O)N3CCC(c4nc5ccccc5s4)CC3)c(C)c2c1 5.8%, CCc1ccc(CNC(=O)c2cccc(-n3c(C)nc4cccnc43)c2)cc1 -7.22%, CCCc1ccc(OCc2ccc(C(=O)Nc3ccccc3C(=O)OC)o2)cc1 1.43%

outcome, inactive:
CCc1ccc(-n2c(=O)c3cccnc3n2CC(=O)NCc2ccccc2)cc1, COc1ccc2nc(N(Cc3cccnc3)C(C)=O)sc2c1, COc1ccc(Nc2ncc3c(n2)CCN(Cc2ccccc2C)C3)c(OC)c1, COc1ccccc1C1CC(=O)NC(C)=C1C(=O)OC1CCCCCC1 (stereo not given), COc1ccc(-c2nc3sc(CCNC(=O)c4ccco4)c(C)n3n2)cc1, CCCCn1c(=N)n(CCCOc2ccc(F)cc2)c2ccccc21, CCn1cc2nc(SCc3cc(C)ccc3C)n(CCc3ccccc3)c(=O)c2n1, Cn1c(=O)c2c(nc(N3CCOCC3)n2Cc2ccccc2Cl)n(C)c1=O, COc1ccc(N(CC(=O)NCCc2ccc(C)cc2)S(=O)(=O)c2c(C)nn(C)c2C)cc1, COc1cc(OC)cc(-c2nnc(SCC(=O)c3ccc([N+](=O)[O-])cc3)o2)c1, CCCCc1nn2c(=O)cc(COC(=O)c3ccc4c(c3)OCO4)nc2s1, CC1=C(C(=O)Nc2ccccc2)C(C(C)C)n2nc(SCc3ccccc3C)nc2N1 (stereo not given), CN(C)CCN(Cc1ccccc1)S(=O)(=O)c1csc(C(N)=O)c1, CCn1c(C)c(C)c2cc(C(=O)N3CCN(c4ccccc4)CC3)ccc21, CCCn1cnc2cc(NC(=O)c3cc(OC)c(OC)c(OC)c3)ccc21, COc1ccc(CCNC(=O)c2ccc3c(c2)nc2n3CCCCC2)cc1OC, Cc1ccc(-c2nnc3c4ccccc4c(-c4ccccc4)nn23)cc1, CCOc1ccccc1C1C(C(=O)Nc2ccccc2)=C(C)Nc2nc(-c3ccccc3)nn21 (stereo not given), CC1CCC(NC(=O)c2ccc3c(c2)N(Cc2ccccc2F)C(=O)c2ccccc2S3(=O)=O)CC1 (stereo not given), CCOc1ccccc1CNCc1c(C(=O)O)n(Cc2ccccc2)c2cc(OC)ccc12, CCOC(=O)c1cc(C)n(CC2CCC(C(=O)Nc3cccc(C(C)=O)c3)CC2)c1C (stereo not given), CCOc1c(CNCCSc2nnnn2C)cccc1OC, CCc1cccc(NC(=O)c2cc3c(=O)oc4ccc(C)cc4c3s2)c1, CCCCN(CC)C(=O)c1ccc2c(c1)NC(=O)c1ccccc1S2, CCc1cccc(NC(=O)C2CCCN2S(=O)(=O)c2ccc3nc(-c4ccccc4)[nH]c3c2)c1 (stereo not given)
